{
  "source": "the supplement of paper PMC8728848",
  "test_in_all_cases": "glycan array binding signal (z-score within array); higher = stronger binding",
  "conditions_in_all_cases": "glycan notation: IUPAC condensed, linker removed",
  "key": {"[1]": {"target": "GlcNAc(b1-2)[GlcNAc(b1-4)]Man(a1-3)[GlcNAc(b1-2)Man(a1-6)]Man(b1-4)GlcNAc(b1-4)GlcNAc", "procedure,_shortened": "(§1)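 Glycan array data came from 3228 arrays in the Consortium for Functional Glycomics database, and only arrays with an available protein sequence were kept. Glycan names were put into IUPAC-condensed notation, and columns mapping to the same glycan were averaged. The binding signal is a within-array Z-score, averaged across arrays of one protein sequence run at different concentrations or buffers and across linkers. A negative Z-score can be read as non-binding.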"}, "[2]": {"target": "GlcNAc(b1-2)[GlcNAc(b1-4)]Man(a1-3)[GlcNAc(b1-4)][GlcNAc(b1-2)Man(a1-6)]Man(b1-4)GlcNAc(b1-4)GlcNAc", "procedure,_shortened": "as §1"}, "[3]": {"target": "GlcNAc(b1-2)[GlcNAc(b1-4)]Man(a1-3)[GlcNAc(b1-4)][GlcNAc(b1-2)[GlcNAc(b1-6)]Man(a1-6)]Man(b1-4)GlcNAc(b1-4)GlcNAc", "procedure,_shortened": "as §1"}, "[4]": {"target": "GlcNAc(b1-2)[GlcNAc(b1-4)]Man(a1-3)[GlcNAc(b1-4)][GlcNAc(b1-2)[GlcNAc(b1-6)]Man(a1-6)]Man(b1-4)GlcNAc(b1-4)[Fuc(a1-6)]GlcNAc", "procedure,_shortened": "as §1"}, "[5]": {"target": "GlcNAc(b1-2)[GlcNAc(b1-6)]Man(a1-6)[GlcNAc(b1-2)Man(a1-3)]Man(b1-4)GlcNAc(b1-4)GlcNAc", "procedure,_shortened": "as §1"}, "[6]": {"target": "GlcNAc(b1-2)[GlcNAc(b1-6)]Man(a1-6)[GlcNAc(b1-2)Man(a1-3)]Man(b1-4)GlcNAc(b1-4)[Fuc(a1-6)]GlcNAc", "procedure,_shortened": "as §1"}, "[7]": {"target": "GlcNAc(b1-2)[GlcNAc(b1-6)]Man(a1-6)[GlcNAc(b1-2)Man(a1-3)][GlcNAc(b1-4)]Man(b1-4)GlcNAc(b1-4)GlcNAc", "procedure,_shortened": "as §1"}, "GlcNAc(b1-3)Gal": {"target": "GlcNAc(b1-3)Gal", "procedure,_shortened": "as §1"}, "[8]": {"target": "GlcNAc(b1-3)Gal(b1-3)GalNAc", "procedure,_shortened": "as §1"}, "GlcNAc(b1-3)Gal(b1-4)Glc": {"target": "GlcNAc(b1-3)Gal(b1-4)Glc", "procedure,_shortened": "as §1"}, "[9]": {"target": "GlcNAc(b1-3)Gal(b1-4)GlcNAc", "procedure,_shortened": "as §1"}, "[10]": {"target": "GlcNAc(b1-3)Gal(b1-4)GlcNAc(b1-3)Gal(b1-4)GlcNAc", "procedure,_shortened": "as §1"}, "GlcNAc(b1-3)GalNAc": {"target": "GlcNAc(b1-3)GalNAc", "procedure,_shortened": "as §1"}, "GlcNAc(b1-3)Man": {"target": "GlcNAc(b1-3)Man", "procedure,_shortened": "as §1"}, "[11]": {"target": "GlcNAc(b1-3)[GlcNAc(b1-4)][GlcNAc(b1-6)]GlcNAc", "procedure,_shortened": "as §1"}, "[12]": {"target": "GlcNAc(b1-3)[GlcNAc(b1-6)]Gal(b1-4)GlcNAc", "procedure,_shortened": "as §1"}, "[13]": {"target": "GlcNAc(b1-3)[GlcNAc(b1-6)]GalNAc", "procedure,_shortened": "as §1"}, "[14]": {"target": "GlcNAc(b1-4)Gal(b1-4)GlcNAc", "procedure,_shortened": "as §1"}, "GlcNAc(b1-4)GlcNAc": {"target": "GlcNAc(b1-4)GlcNAc", "procedure,_shortened": "as §1"}, "[15]": {"target": "GlcNAc(b1-4)GlcNAc(b1-4)GlcNAc", "procedure,_shortened": "as §1"}, "[16]": {"target": "GlcNAc(b1-4)GlcNAc(b1-4)GlcNAc(b1-4)GlcNAc(b1-4)GlcNAc", "procedure,_shortened": "as §1"}, "[17]": {"target": "GlcNAc(b1-4)GlcNAc(b1-4)GlcNAc(b1-4)GlcNAc(b1-4)GlcNAc(b1-4)GlcNAc", "procedure,_shortened": "as §1"}, "[18]": {"target": "GlcNAc(b1-4)[GlcNAc(b1-6)]GalNAc", "procedure,_shortened": "as §1"}, "[19]": {"target": "GlcNAc(b1-6)Gal(b1-4)GlcNAc", "procedure,_shortened": "as §1"}, "GlcNAc(b1-6)GalNAc": {"target": "GlcNAc(b1-6)GalNAc", "procedure,_shortened": "as §1"}, "GlcNAc3Prop(b1-4)GlcNAc": {"target": "GlcNAc3Prop(b1-4)GlcNAc", "procedure,_shortened": "as §1"}, "[20]": {"target": "GlcNAc6S(b1-3)Gal(b1-4)GlcNAc", "procedure,_shortened": "as §1"}, "Kdn(a2-3)Gal(b1-3)GalNAc": {"target": "Kdn(a2-3)Gal(b1-3)GalNAc", "procedure,_shortened": "as §1"}, "Kdn(a2-3)Gal(b1-3)GlcNAc": {"target": "Kdn(a2-3)Gal(b1-3)GlcNAc", "procedure,_shortened": "as §1"}, "Kdn(a2-3)Gal(b1-4)Glc": {"target": "Kdn(a2-3)Gal(b1-4)Glc", "procedure,_shortened": "as §1"}, "Kdn(a2-3)Gal(b1-4)GlcNAc": {"target": "Kdn(a2-3)Gal(b1-4)GlcNAc", "procedure,_shortened": "as §1"}, "[21]": {"target": "Kdn(a2-3)Gal(b1-4)[Fuc(a1-3)]GlcNAc", "procedure,_shortened": "as §1"}, "Kdn(a2-6)Gal(b1-4)GlcNAc": {"target": "Kdn(a2-6)Gal(b1-4)GlcNAc", "procedure,_shortened": "as §1"}, "[22]": {"target": "Man(a1-2)Man(a1-2)Man(a1-3)Man", "procedure,_shortened": "as §1"}, "[23]": {"target": "Man(a1-2)Man(a1-2)Man(a1-6)[Man(a1-3)]Man", "procedure,_shortened": "as §1"}, "Man(a1-2)Man(a1-3)Man": {"target": "Man(a1-2)Man(a1-3)Man", "procedure,_shortened": "as §1"}, "[24]": {"target": "Man(a1-2)Man(a1-3)[Man(a1-2)Man(a1-6)]Man", "procedure,_shortened": "as §1"}, "[25]": {"target": "Man(a1-2)Man(a1-3)[Man(a1-2)Man(a1-6)]Man(a1-6)[Man(a1-2)Man(a1-2)Man(a1-3)]Man", "procedure,_shortened": "as §1"}},
  "note": "The list shows a part of the results.",
  "data": [
    {"binder": "Strep tagII-anxA1 (Homo sapiens), P04083 (protein) MAMVSEFLKQAWFIENEEQEYVQTVKSSKGGPGSAVSPYPTFNPSSDVAALHKAIMVKGVDEATIIDILTKRNNAQRQQIKAAYLQETGKPLDETLKKALTGHLEEVVLALLKTPAQFDADELRAAMKGLGTDEDTLIEILASRTNKEIRDINRVYREELKRDLAKDITSDTSGDFRNALLSLAKGDRSEDFGVNEDLADSDARALYEAGERRKGTDVNVFNTILTTRSYPQLRRVFQKYTKYSKHDMNKVLDLELKGDIEKCLTAIVKCATSKPAFFAEKLHQAMKGVGTRHKALIRIMVSRSEIDMNDIKAFYQKMYGISLCQAILDETKGDYEKILVALCGGN", "values": [
      {"measurement": "glycan array binding signal (z-score)", "setting": "[1]", "value": -0.771},
      {"measurement": "glycan array binding signal (z-score)", "setting": "[2]", "value": -0.718},
      {"measurement": "glycan array binding signal (z-score)", "setting": "[3]", "value": -0.563},
      {"measurement": "glycan array binding signal (z-score)", "setting": "[4]", "value": -0.569},
      {"measurement": "glycan array binding signal (z-score)", "setting": "[5]", "value": -0.21},
      {"measurement": "glycan array binding signal (z-score)", "setting": "[6]", "value": 0.754},
      {"measurement": "glycan array binding signal (z-score)", "setting": "[7]", "value": -0.77},
      {"measurement": "glycan array binding signal (z-score)", "setting": "GlcNAc(b1-3)Gal", "value": -0.607},
      {"measurement": "glycan array binding signal (z-score)", "setting": "[8]", "value": -0.026},
      {"measurement": "glycan array binding signal (z-score)", "setting": "GlcNAc(b1-3)Gal(b1-4)Glc", "value": -0.424},
      {"measurement": "glycan array binding signal (z-score)", "setting": "[9]", "value": -0.207},
      {"measurement": "glycan array binding signal (z-score)", "setting": "[10]", "value": -0.752},
      {"measurement": "glycan array binding signal (z-score)", "setting": "GlcNAc(b1-3)GalNAc", "value": -0.425},
      {"measurement": "glycan array binding signal (z-score)", "setting": "GlcNAc(b1-3)Man", "value": -0.223},
      {"measurement": "glycan array binding signal (z-score)", "setting": "[11]", "value": 2.8},
      {"measurement": "glycan array binding signal (z-score)", "setting": "[12]", "value": -0.692},
      {"measurement": "glycan array binding signal (z-score)", "setting": "[13]", "value": -0.727},
      {"measurement": "glycan array binding signal (z-score)", "setting": "[14]", "value": -0.716},
      {"measurement": "glycan array binding signal (z-score)", "setting": "GlcNAc(b1-4)GlcNAc", "value": -0.655},
      {"measurement": "glycan array binding signal (z-score)", "setting": "[15]", "value": -0.38},
      {"measurement": "glycan array binding signal (z-score)", "setting": "[16]", "value": -0.763},
      {"measurement": "glycan array binding signal (z-score)", "setting": "[17]", "value": -0.703},
      {"measurement": "glycan array binding signal (z-score)", "setting": "[18]", "value": -0.519},
      {"measurement": "glycan array binding signal (z-score)", "setting": "[19]", "value": -0.32},
      {"measurement": "glycan array binding signal (z-score)", "setting": "GlcNAc(b1-6)GalNAc", "value": -0.424},
      {"measurement": "glycan array binding signal (z-score)", "setting": "GlcNAc3Prop(b1-4)GlcNAc", "value": -0.494},
      {"measurement": "glycan array binding signal (z-score)", "setting": "[20]", "value": -0.688},
      {"measurement": "glycan array binding signal (z-score)", "setting": "Kdn(a2-3)Gal(b1-3)GalNAc", "value": -0.296},
      {"measurement": "glycan array binding signal (z-score)", "setting": "Kdn(a2-3)Gal(b1-3)GlcNAc", "value": -0.652},
      {"measurement": "glycan array binding signal (z-score)", "setting": "Kdn(a2-3)Gal(b1-4)Glc", "value": 1.38},
      {"measurement": "glycan array binding signal (z-score)", "setting": "Kdn(a2-3)Gal(b1-4)GlcNAc", "value": -0.41},
      {"measurement": "glycan array binding signal (z-score)", "setting": "[21]", "value": -0.093},
      {"measurement": "glycan array binding signal (z-score)", "setting": "Kdn(a2-6)Gal(b1-4)GlcNAc", "value": -0.606},
      {"measurement": "glycan array binding signal (z-score)", "setting": "[22]", "value": -0.615},
      {"measurement": "glycan array binding signal (z-score)", "setting": "[23]", "value": -0.215},
      {"measurement": "glycan array binding signal (z-score)", "setting": "Man(a1-2)Man(a1-3)Man", "value": -0.123},
      {"measurement": "glycan array binding signal (z-score)", "setting": "[24]", "value": -0.308},
      {"measurement": "glycan array binding signal (z-score)", "setting": "[25]", "value": 0.503}
    ]}
  ]
}
